The whole screen tested about 390,000 compounds, of which about 360 (0.092%) were called active. Inconclusive results, whose numbers are uncertain, are shown with a selection of clear calls. Calls come from the whole dose curve; as a rule, active = well fitted inhibition curve with a large enough effect; inconclusive = small, poorly fitted or top-dose-only effect; inactive = no such curve, though single readings can be large or run the other way. Where the call is inconclusive, the potency comes from a doubtful curve fit.
Molecular target: Isocitrate dehydrogenase [NADP] cytoplasmic (Homo sapiens) (UniProt O75874)
Assay: qHTS for Inhibitors of mutant isocitrate dehydrogenase 1 (IDH1): qHTS; note: nearly all actives have a fitted effect of over 65% in size
Conditions: IDH1-R132H enzyme, NADPH consumption, diaphorase/resazurin fluorescence; series mostly up to 76.6 µM; activity change, negative = inhibition: at the top concentration
How it was run: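 IDH1-R132H (0.5 ug/mL) preincubated 30 min with compound, then NADPH (0.016 mM) and alpha-KG (2 mM) added; 80 min at RT, pH 7.5. Remaining NADPH coupled via diaphorase/resazurin to fluorescence (540/590 nm); concentration-response curves normalized to no-enzyme control.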
% is set by controls: 0 for no effect and ±100 for the full control effect; potency is the fitted concentration of half-maximal effect; tags give direction and shape of the fitted curve.

Structure (SMILES) | Potency | activity change, negative = inhibition
CCOC(=O)c1cc2c(=O)n3ccccc3nc2n(CC(C)C)c1=NC(=O)C(C)Oc1ccccc1 (stereo not given) | inconclusive: 50.1 µM [inhibitor, single point] | –
Cc1cc(C)n(-c2nc(NCCN(C)C)c3c4c(sc3n2)CCCC4)n1 | – | inactive: 7.64%
CC(C)(C)c1ccc(S(=O)(=O)Nc2ccc(Cc3ccncc3)cc2)cc1 | inconclusive: 29.3 µM [inhibitor, partial curve] | –
CC1C(=O)N(Cc2cn(CCC3OCCO3)nn2)CCS(=O)(=O)N1Cc1ccc(-c2ccc(Cl)cc2)cc1 (stereo not given) | inconclusive: 44.7 µM [inhibitor, single point] | –
OCCN(CCO)c1nc(N2CCCCC2)c2nc(N(CCO)CCO)nc(N3CCCCC3)c2n1 | inconclusive: 44.7 µM [inhibitor, partial curve, poor fit] | –
O=C(O)CCN1C(=O)/C(=C/c2cn(-c3ccccc3)nc2-c2cccs2)SC1=S | inconclusive: 26.1 µM [inhibitor, single point] | –
COc1cc2sc(-c3ccccc3OC)c(-c3ccc(OCCN4CCOCC4)cc3)c2cc1OC | inconclusive: 70.8 µM [inhibitor, single point] | –
CCCOC(=O)c1ccc(Oc2cn[nH]c2-c2ccc(O)cc2O)cc1 | inconclusive: 58.5 µM [inhibitor, single point] | –
COc1ccc(N(C(=O)/C=C/C(=O)Nc2cc(C)on2)C(C(=O)NC2CCCC2)c2ccccc2C)cc1 (stereo not given) | inconclusive: 52.1 µM [inhibitor, partial curve, poor fit] | –
CCC[C@@H]1C[C@@]1(CCC)[C@@H](NP(=O)(c1ccccc1)c1ccccc1)c1ccc(C(=O)OC)cc1 | inconclusive: 35.5 µM [inhibitor, partial curve] | –
Cc1ccc2nc(COc3cccc(NC(=O)COc4ccc(F)cc4)c3)cc(=O)n2c1 | inconclusive: 63.1 µM [inhibitor, single point] | –
CC(=O)c1cccc(NS(=O)(=O)c2cccc(S(=O)(=O)c3ccc(Br)cc3)c2)c1 | inconclusive: 50.1 µM [inhibitor, partial curve, poor fit] | –
C=C1CCc2c([nH]c3ccc(OCC(C)C)cc23)C1=O | inconclusive: 44.7 µM [inhibitor, partial curve, poor fit] | –
CCOC(=O)N1CCN(C(=O)c2ccc3c(c2)N(Cc2ccc(C)cc2)CCS3)CC1 | inconclusive: 36.9 µM [inhibitor, partial curve, poor fit] | –
Cc1ccc(S(=O)(=O)CCc2nnc(NC(=O)CCl)s2)cc1C | inconclusive: 14.7 µM [inhibitor, full curve] | –
C=CCSc1nnc(NC(=O)c2cccc(S(=O)(=O)N(C)c3ccccc3)c2)s1 | – | inactive: 9.47%
COC(=O)c1ccccc1NC(=O)CCS(=O)(=O)c1nc(-c2ccc3c(c2)OCO3)cc(C(F)(F)F)n1 | – | inactive: 7.33%
Cc1ccc(NS(=O)(=O)c2ccc(-c3cc(C)no3)cc2)c(Br)c1 | – | inactive: -2.58%
O=C(Nc1ccc(Cc2ccncc2)cc1)c1ccc(S(=O)(=O)N2CCCC2)cc1 | – | inactive: -2.37%
COC(=O)c1c(NC(=O)COC(=O)c2ccc(O)cc2)sc2c1CCCCC2 | inconclusive: 18.5 µM [inhibitor, single point] | –
CCN(C(=O)C1CCCN(c2ncnc3c2nc2n3CCCCC2)C1)c1cccc(Cl)c1 (stereo not given) | inconclusive: 52.1 µM [inhibitor, single point] | –
CC(=O)Nc1cccc(OCC(=O)Nc2ccccc2)c1 | – | inactive: -2.04%
S=C(c1ccc(-c2ccc(Br)cc2)o1)N1CCOCC1 | – | inactive: 11.7%
CN(Cc1ccc(Cl)cc1Cl)C(=O)c1cccc(S(=O)(=O)N2CCN(c3ccccc3)CC2)c1 | – | inactive: 8.01%
CCOc1ccc(-c2[nH]nc3c2C(c2ccc4c(c2)OCO4)C(C#N)=C(N)O3)cc1OC (stereo not given) | inconclusive: 50.1 µM [inhibitor, single point] | –
